The values below come from PubChem BioAssay AID1346428 (National Center for Advancing Translational Sciences (NCATS), 2018).

About 1,200 (2.5%) of roughly 48,000 compounds were called active. Another 2% or so got no clear call; they are omitted.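 Rule for the calls: active = activation of at least 60% and not above a set upper limit (about 1 call in 100 departs from these limits); inconclusive = activation of 40% to 60%, or above that upper limit; inactive = activation under 40%.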 This is one part of the list.

Sequence of UniProt O75388 (O75388 whole entry, looked up): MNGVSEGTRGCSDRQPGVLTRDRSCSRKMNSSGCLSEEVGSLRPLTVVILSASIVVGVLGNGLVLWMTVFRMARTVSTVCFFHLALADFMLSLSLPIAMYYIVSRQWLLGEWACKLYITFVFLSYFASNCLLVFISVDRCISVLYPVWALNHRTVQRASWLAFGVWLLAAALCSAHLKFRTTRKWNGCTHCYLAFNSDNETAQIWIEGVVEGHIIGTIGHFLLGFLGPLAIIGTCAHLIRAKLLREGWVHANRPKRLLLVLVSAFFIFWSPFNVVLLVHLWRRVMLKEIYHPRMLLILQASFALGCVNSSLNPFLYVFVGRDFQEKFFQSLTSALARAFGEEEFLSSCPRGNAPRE

The experiment concerns the target Probable G-protein coupled receptor 32 (Homo sapiens) (UniProt O75388). Description: qHTS for Agonists of Human Resolvin D1 Receptor DRV1. Note: 0% is about no effect. Particulars: CHO-K1 GPR32 beta-arrestin PathHunter luminescence, 90 min; at 76.9 µM; active compounds read high; zero percent set by DMSO-only wells. In a few lines:
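Step 1: seed CHO-K1 GPR32 beta-arrestin cells, 2,500/well, overnight at 37 °C. Step 2: add compounds, 90 min at 37 °C. Step 3: detection reagent, 1 h ambient, then luminescence.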
On the technique in general: Quantitative high-throughput screening tests each substance at several concentrations.
For the molecule `CSc1ccc(-c2nc3ncccn3c2Nc2ccc(C)c(C)c2)cc1`, the activation is inactive: -31.6%.
For `CC(=O)c1ccc(NC(=O)Nc2nnc(N3CCCC(C)C3)s2)cc1` (centres undefined), the activation was inactive: -1.31%.
In the case of `CCN(c1ccccc1)c1nnc(NC(=O)Nc2cccc(Cl)c2C)s1`, the activation is inactive: 6.27%.
Turning to `CC(C)(C)OC(=O)N1CCC(c2c(C(=O)NCc3cccs3)cnn2-c2ccc(F)cc2F)CC1`, the activation was inactive: -28.9%.
In the case of `COc1ccc(Cl)cc1Nc1ncnc2c1c(-c1ccccc1)cn2-c1ccccc1`, the activation is inactive: -18.4%.
With `Cc1c2cnn(CC(=O)NCc3ccc(F)cc3)c(=O)c2c(C)n1Cc1ccccc1F` the figure was inactive: -3.31%; with `Cc1nc2c(C(=O)NCCc3ccccc3)cnn2c(C)c1Cc1c(F)cccc1Cl`, inactive: -10.2%; with `COCCN1CCc2nc(SCC(=O)Nc3ccc(Br)cc3)[nH]c(=O)c2C1`, inactive: 2.65%.
With `CCOCCCNC(=O)c1cc2c(-c3ccc(OC)c(OC)c3)nn(C)c2s1` the figure was inactive: 21%; with `Cc1noc(/C=C/N(C)C)c1S(=O)(=O)N1CCCC(C(=O)Nc2ccc(F)cc2F)C1` (centres undefined), inactive: -29.1%.
With `COc1ccc(NC(=O)Nc2sc3nc4n(c(=O)c3c2C)CCC(C)CC4)cc1OC` (centres undefined) the figure was inactive: 20.8%; with `Cc1ccc(CNC(=O)CCSCc2ccccc2F)cc1`, inactive: 2.71%; with `O=C(NCc1cccnc1)c1nn(-c2ccccc2F)nc1CO`, inactive: -8.59%.
`CCc1cccc(NC(=O)CCc2c(C)nc3c(c2C)c(=O)n(C)c(=O)n3C)c1`: the activation is inactive: 11.9%.
With `Cc1ccc(N(C(=O)COc2ccccc2C)S(=O)(=O)c2ccc(Cl)cc2)cc1` the figure was inactive: -5.34%; with `CC(=O)N(CC(=O)N(C)C)c1ccccc1`, inactive: -5.58%; with `Cc1cc(C)c2oc(C(=O)Nc3sc4c(c3C(=O)NCc3ccco3)CCCC4)cc(=O)c2c1`, inactive: -10.9%.
On to `Cc1ccc(NC(=O)c2cccc(N3CCCS3(=O)=O)c2)cc1`, for which the activation is inactive: -20.9%.
As to `CCN(CC)S(=O)(=O)c1cc(-c2nnc(Nc3ccc(OC)c(C(N)=O)c3)c3ccccc23)ccc1C`, the activation was inactive: -16.3%.
In the case of `Cc1ccc(Nc2c(-c3cc(Br)ccc3F)nc3cc(C)ccn23)cc1` it was inactive: -9.26%.
As to `COc1ccccc1N1CCN(c2ccc(=O)n(CC(=O)Nc3ccc(F)c(F)c3)n2)CC1`, the activation is inactive: 0.851%.
In the case of `Cc1c(NC(=O)c2ccc(Cl)cc2)cc(C(C)C)c(O)c1S(=O)(=O)c1ccc(Cl)cc1`, the activation was inactive: -5.69%.
Consider `CCOCCCNC(=O)c1ccc(NC(=O)N2CCCCc3ccccc32)cc1`, for which the activation is inactive: -6.11%.
In the case of `COc1ccccc1NC(=O)Cn1c(=O)n(-c2ccc(C)cc2)c(=O)c2ccc(C(=O)NCc3ccco3)cc21` it was inactive: -9.08%; in that of `CCOc1ccc(NC(=O)N2CCC(CN3CCc4ccccc4C3)CC2)cc1`, inactive: -15.7%.
In the case of `O=C(NCc1ccc(Cl)cc1)C1CCCN(C(=O)c2cnn(-c3ccc(F)cc3)c2-n2cccc2)C1` (centres undefined) it was inactive: -9.14%; in that of `O=C(CCn1c(=O)c2cccn2c2ccc(F)cc21)NCCc1ccccc1`, inactive: -25.2%.
With `Cc1ccc(C)c(Nc2cc(C(=O)NC3CCCCC3)c3ccccc3n2)c1` the figure was inactive: -16.7%; with `CCC(=O)N1CCc2cc(CNC(=O)C(CC)c3ccccc3)ccc21` (centres undefined), inactive: -20.7%.
Consider `CC(C)c1ccc(S(=O)(=O)c2cnc(SCC(=O)Nc3cccc(C(F)(F)F)c3)nc2N)cc1`, for which the activation was active: 76.4%.
With `CCc1cccc(CC)c1NS(=O)(=O)c1ccc2c(c1)CCN2C(=O)C1CC1` the figure was inactive: -8.4%; with `Cc1ccc(CNC(=O)c2nnc(Cc3cccc(F)c3)o2)cc1`, inactive: -3.6%; with `CCOC(=O)c1cc(-c2ccc(OC)c(S(=O)(=O)Nc3ccc(OC)cc3OC)c2)on1`, inactive: -14.9%.
As to `COC(=O)c1sccc1S(=O)(=O)N1CCN(c2ccccc2OC)CC1`, the activation is inactive: -14.7%.
With `O=C(Nc1ccc2nc(SCCOc3ccccc3Cl)sc2c1)c1cccs1` the figure was inactive: -1.58%; with `COc1ccc(N2CC(C(=O)Nc3ccc(NC(C)=O)cc3)CC2=O)cc1` (centres undefined), inactive: -15.3%.
`CCN1C(=O)c2ccccc2S(=O)c2ccc(C(=O)NCc3ccc(F)cc3)cc21` (centres undefined): the activation is inactive: -16.8%.
Take `COCCCNC(=O)C(=O)NCC(c1ccc2c(c1)OCO2)N1CCOCC1` (centres undefined): the activation was inactive: -11.7%.
As to `Cc1ccc(C)c(S(=O)(=O)c2nnn3c2nc(N2CCOCC2)c2sccc23)c1`, the activation was inactive: -9.84%.
In the case of `COc1ccc(NC(=O)C2=C(C)Nc3nc(CCCO)nn3C2c2ccc(O)cc2)cc1` (centres undefined) it was inactive: -1.68%.
Regarding `CC(C)N(Cc1ccccc1)c1ncnc2c1nnn2C`, the activation was inactive: -14.5%.
Regarding `CCOc1ccc(C(c2c(O)cc(C)n(CCOC)c2=O)N2CCN(c3ccccc3F)CC2)cc1` (centres undefined), the activation is inactive: -16.4%.
With `COc1ccc(NC(=O)C(c2ccc(C)cc2)N(C)C(=O)Cc2cccs2)cc1` (centres undefined) the figure was inactive: -23%; with `COc1ccccc1CNC(=O)CSc1ncc2c(n1)-c1ccc(Cl)cc1N(Cc1ccccc1)S2(=O)=O`, inactive: -5.33%.
With `Cc1c(Cl)cccc1NC(=O)C(C)n1c(=O)cc(-c2ccccc2)c2c(C)nn(C)c21` (centres undefined) the figure was inactive: 17.7%.
With `CCc1ccc(NC(=O)c2sc3nc(C)c(Cl)c(C)c3c2N)cc1` the figure was inactive: 7.84%.
Turning to `O=C(Cn1c(-c2cccs2)cc2cc(Cl)ccc21)N1CCN(c2ccccc2)CC1`, the activation was inactive: -5.97%.
In the case of `O=C(Cn1c(=O)c2cc(Cl)ccc2n2nncc12)Nc1ccccc1`, the activation is inactive: -4.1%.
In the case of `Cc1ccc(NC(=O)C2CCCN2S(=O)(=O)c2ccc3c(c2)CCCC(=O)N3)cc1C` (centres undefined), the activation is inactive: 7.48%.
Take `CCOc1ccccc1C(=O)N1CC(=O)Nc2ccc(Cl)cc2C1c1ccccc1` (centres undefined): the activation is inactive: -22.2%.
With `COc1ccc(-c2cccc(NS(=O)(=O)c3cc(C)c(OC)c(C)c3C)c2)nn1` the figure was inactive: 35.6%; with `C=CCC(CC=C)(CNC(=O)C(=O)Nc1cccc(C(F)(F)F)c1)c1ccccc1`, inactive: -9.67%.
With `O=C(CC(c1cccs1)N1Cc2ccccc2C1=O)Nc1ccc(F)c(Cl)c1` (centres undefined) the figure was inactive: 23.8%; with `CC(=O)Nc1cc(C(=O)NCc2ccc(C)cc2)ccc1Sc1ccc(C)cc1`, inactive: -13.4%.
